Source: the supplement of paper PMC9151546
Many values rest on one well or one pass, so single values are uncertain.

How the values were obtained:
CHO-K1 [1] = assay: hypodiploid nuclei frequency (% of nucleated events); higher = more hypodiploid events (aneugenic)
Experimental: (§1)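 Flow-cytometric in vitro micronucleus assay (Litron MicroFlow) in CHO-K1 cells in 96-well plates, 19 concentrations (4.5-200 µM, n=1 per concentration). Without S9, cells were exposed for 24 h and sampled at 48 h. With Aroclor 1254-induced rat liver S9, cells were exposed for 3-4 h and sampled at 27-28 h. Read-outs are %MN and %hypodiploid nuclei relative to nucleated events, and relative survival as the nuclei-to-bead ratio versus the 1% DMSO vehicle control (x100).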

CHO-K1 [2] = assay: micronucleus frequency (% of nucleated events); higher = more micronuclei (genotoxic)
CHO-K1 [3] = assay: relative survival (nuclei to bead ratio vs DMSO control) (% of vehicle control); higher = more surviving cells
Experimental: as §1
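Throughout, for hypodiploid nuclei frequency (% of nucleated events): hypodiploid nuclei gated on a flow cytometer with 488 nm excitation after SYTOX Green staining, cultures at 37 °C, positive controls vinblastine without S9 and cyclophosphamide with S9.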
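Throughout, for micronucleus frequency (% of nucleated events): cells lysed with nuclei stained by SYTOX Green, then micronucleus-gated events counted against nucleated events by flow cytometry with 488 nm excitation.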
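Throughout, for relative survival (nuclei to bead ratio vs DMSO control): Lysed-cell nuclei stained with SYTOX Green and counted against counting beads by flow cytometry at 488 nm excitation, with vinblastine (no S9) and cyclophosphamide (plus S9) as positive controls.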

CCN(CC)N=O [N-Nitrosodiethylamine]
Conditions	hypodiploid nuclei frequency, CHO-K1 [1] [%]	micronucleus frequency, CHO-K1 [2] [%]	relative survival, CHO-K1 [3]
concentration: 4.57 (µM), S9 metabolic activation: with S9, exposure time: 3-4 hours	0.24	1.8	138
concentration: 4.57 (µM), S9 metabolic activation: without S9, exposure time: 24 hours	0.36	2.18	143
concentration: 5.71 (µM), S9 metabolic activation: with S9, exposure time: 3-4 hours	0.24	1.46	147
concentration: 5.71 (µM), S9 metabolic activation: without S9, exposure time: 24 hours	0.44	1.96	121
concentration: 7.14 (µM), S9 metabolic activation: with S9, exposure time: 3-4 hours	0.26	1.28	120
concentration: 7.14 (µM), S9 metabolic activation: without S9, exposure time: 24 hours	0.56	2.12	133
concentration: 8.93 (µM), S9 metabolic activation: with S9, exposure time: 3-4 hours	0.38	1.64	120
concentration: 8.93 (µM), S9 metabolic activation: without S9, exposure time: 24 hours	0.62	1.6	113
concentration: 11.2 (µM), S9 metabolic activation: with S9, exposure time: 3-4 hours	0.32	1.5	136
concentration: 11.2 (µM), S9 metabolic activation: without S9, exposure time: 24 hours	0.5	1.6	136
concentration: 14 (µM), S9 metabolic activation: with S9, exposure time: 3-4 hours	0.28	2.08	132
concentration: 14 (µM), S9 metabolic activation: without S9, exposure time: 24 hours	0.6	2.44	128
concentration: 17.4 (µM), S9 metabolic activation: with S9, exposure time: 3-4 hours	0.3	1.6	116
concentration: 17.4 (µM), S9 metabolic activation: without S9, exposure time: 24 hours	0.54	1.8	101
concentration: 21.8 (µM), S9 metabolic activation: with S9, exposure time: 3-4 hours	0.36	1.98	121
concentration: 21.8 (µM), S9 metabolic activation: without S9, exposure time: 24 hours	0.66	2.42	98.5
concentration: 27.2 (µM), S9 metabolic activation: with S9, exposure time: 3-4 hours	0.62	2.68	142
concentration: 27.2 (µM), S9 metabolic activation: without S9, exposure time: 24 hours	0.78	2.78	107
concentration: 34.1 (µM), S9 metabolic activation: with S9, exposure time: 3-4 hours	0.32	2.76	136
concentration: 34.1 (µM), S9 metabolic activation: without S9, exposure time: 24 hours	1.06	2.74	140
concentration: 42.6 (µM), S9 metabolic activation: with S9, exposure time: 3-4 hours	0.42	2	133
concentration: 42.6 (µM), S9 metabolic activation: without S9, exposure time: 24 hours	0.82	3.02	119
concentration: 53.2 (µM), S9 metabolic activation: with S9, exposure time: 3-4 hours	0.28	2.02	123
concentration: 53.2 (µM), S9 metabolic activation: without S9, exposure time: 24 hours	0.76	2.3	135
concentration: 66.5 (µM), S9 metabolic activation: with S9, exposure time: 3-4 hours	0.16	1.38	129
concentration: 66.5 (µM), S9 metabolic activation: without S9, exposure time: 24 hours	0.74	3.4	128
concentration: 83.1 (µM), S9 metabolic activation: with S9, exposure time: 3-4 hours	0.24	1.8	119
concentration: 83.1 (µM), S9 metabolic activation: without S9, exposure time: 24 hours	0.88	3.62	119
concentration: 104 (µM), S9 metabolic activation: with S9, exposure time: 3-4 hours	0.3	1.4	117
concentration: 104 (µM), S9 metabolic activation: without S9, exposure time: 24 hours	0.94	2.88	130
concentration: 130 (µM), S9 metabolic activation: with S9, exposure time: 3-4 hours	0.18	1.3	128
concentration: 130 (µM), S9 metabolic activation: without S9, exposure time: 24 hours	1.44	3.34	120
concentration: 162 (µM), S9 metabolic activation: with S9, exposure time: 3-4 hours	0.3	1.66	140
concentration: 162 (µM), S9 metabolic activation: without S9, exposure time: 24 hours	1.3	3.6	114
concentration: 203 (µM), S9 metabolic activation: with S9, exposure time: 3-4 hours	0.48	3.14	121
concentration: 203 (µM), S9 metabolic activation: without S9, exposure time: 24 hours	1.2	3.36	97.1

CCCN(CCC)N=O [N-Nitrosodipropylamine]
Conditions	hypodiploid nuclei frequency, CHO-K1 [1] [%]	micronucleus frequency, CHO-K1 [2] [%]	relative survival, CHO-K1 [3]
concentration: 4.5 (µM), S9 metabolic activation: with S9, exposure time: 3-4 hours	0.12	0.9	95.9
concentration: 4.5 (µM), S9 metabolic activation: without S9, exposure time: 24 hours	0.44	1.24	136
concentration: 5.63 (µM), S9 metabolic activation: with S9, exposure time: 3-4 hours	0.3	1.2	110
concentration: 5.63 (µM), S9 metabolic activation: without S9, exposure time: 24 hours	0.6	2.22	125
concentration: 7.04 (µM), S9 metabolic activation: with S9, exposure time: 3-4 hours	0.28	1.48	146
concentration: 7.04 (µM), S9 metabolic activation: without S9, exposure time: 24 hours	0.56	1.28	107
concentration: 8.8 (µM), S9 metabolic activation: with S9, exposure time: 3-4 hours	0.26	1	127
concentration: 8.8 (µM), S9 metabolic activation: without S9, exposure time: 24 hours	0.62	1.4	116
concentration: 11 (µM), S9 metabolic activation: with S9, exposure time: 3-4 hours	0.18	1.04	101
concentration: 11 (µM), S9 metabolic activation: without S9, exposure time: 24 hours	0.44	1.4	113
concentration: 13.7 (µM), S9 metabolic activation: with S9, exposure time: 3-4 hours	0.32	1.24	121
concentration: 13.7 (µM), S9 metabolic activation: without S9, exposure time: 24 hours	0.54	1.74	116
concentration: 17.2 (µM), S9 metabolic activation: with S9, exposure time: 3-4 hours	0.2	1.36	112
concentration: 17.2 (µM), S9 metabolic activation: without S9, exposure time: 24 hours	0.4	1.68	111
concentration: 21.5 (µM), S9 metabolic activation: with S9, exposure time: 3-4 hours	0.06	1.2	132
concentration: 21.5 (µM), S9 metabolic activation: without S9, exposure time: 24 hours	0.68	1.64	111
concentration: 26.8 (µM), S9 metabolic activation: with S9, exposure time: 3-4 hours	0.24	1.2	89.2
concentration: 26.8 (µM), S9 metabolic activation: without S9, exposure time: 24 hours	0.7	3	95.4
concentration: 33.6 (µM), S9 metabolic activation: with S9, exposure time: 3-4 hours	0.26	1.2	103
concentration: 33.6 (µM), S9 metabolic activation: without S9, exposure time: 24 hours	0.38	1.82	84.2
concentration: 41.9 (µM), S9 metabolic activation: with S9, exposure time: 3-4 hours	0.38	1.2	87.2
concentration: 41.9 (µM), S9 metabolic activation: without S9, exposure time: 24 hours	0.68	1.88	91.5
concentration: 52.4 (µM), S9 metabolic activation: with S9, exposure time: 3-4 hours	0.18	1.7	112
concentration: 52.4 (µM), S9 metabolic activation: without S9, exposure time: 24 hours	0.54	1.58	76
concentration: 65.5 (µM), S9 metabolic activation: with S9, exposure time: 3-4 hours	0.2	1.8	107
concentration: 65.5 (µM), S9 metabolic activation: without S9, exposure time: 24 hours	0.58	1.52	106
concentration: 81.9 (µM), S9 metabolic activation: with S9, exposure time: 3-4 hours	0.38	1.38	106
concentration: 81.9 (µM), S9 metabolic activation: without S9, exposure time: 24 hours	0.52	1.72	78
concentration: 102 (µM), S9 metabolic activation: with S9, exposure time: 3-4 hours	0.38	1.4	107
concentration: 102 (µM), S9 metabolic activation: without S9, exposure time: 24 hours	0.58	1.86	79.4
concentration: 128 (µM), S9 metabolic activation: with S9, exposure time: 3-4 hours	0.36	1.58	106
concentration: 128 (µM), S9 metabolic activation: without S9, exposure time: 24 hours	0.94	1.96	85.4
concentration: 160 (µM), S9 metabolic activation: with S9, exposure time: 3-4 hours	0.28	1.58	107
concentration: 160 (µM), S9 metabolic activation: without S9, exposure time: 24 hours	0.82	1.54	76.7
concentration: 200 (µM), S9 metabolic activation: with S9, exposure time: 3-4 hours	0.24	1.54	103
concentration: 200 (µM), S9 metabolic activation: without S9, exposure time: 24 hours	0.58	1.72	79
